Data reported in PubChem BioAssay AID493168 (National Center for Advancing Translational Sciences (NCATS), 2011).
Inconclusive results, whose numbers are uncertain, are shown with a selection of clear calls. Potencies of inconclusive entries are left out as doubtful fits. Calls of active or inactive are those of the source. The call rests on the fitted dose curve; in most records, active means well fitted inhibition curve with a large enough effect; inconclusive means small, poorly fitted or top-dose-only effect, or effect the other way; inactive means flat fitted curve, though single readings scatter.

What follows are compounds tested against Ubiquitin carboxyl-terminal hydrolase 2 (Homo sapiens) (UniProt O75604) (assay: Confirmation Assay for Inhibitors of Ubiquitin-specific Protease USP2a Using CHOP2 as the Reporter). Conditions: USP2 core, Ub-CHOP2 coupled reporter fluorescence; series mostly up to 38.3 µM; activity change, negative = inhibition: at the top concentration.
Text: NIH Molecular Libraries Probe Centers Network [MLPCN] NIH Chemical Genomics Center [NCGC] MLSCN Grant: XO1-MH079852-01 PI Name: Nicholson, Ben. Progenra Inc, Malvern, PA NCGC Assay Overview: Homeostasis of cellular proteins is maintained through a combination of synthesis and degradation. The pathway that accounts for the majority of protein degradation is the ubiquitin-proteasomal pathway. Ubiquitin (Ub) is highly conserved in all cells and the generation of a multi-Ub chain typically targets proteins for degradation by the proteasome. However, ubiquitination is highly reversible and dynamic. Deubiquitination, the reverse process, is catalyzed through the action of enzymes referred to as isopeptidases or deubiquitinating enzymes (DUBs). This group of enzymes is collectively responsible for maintaining adequate pools of free ubiquitin and regulating the ubiquitination status of cellular proteins. The class of DUBs referred to as the ubiquitin-specific proteases (USP) family functions endoproteolytically to cleave Ub chains from a wide range of protein substrates. USP2a deubiquitinates fatty acid synthase (FASN) which has recently been identified as an emerging oncology target. To identify inhibitors of USP2a a cell-free assay was employed. […] The reporter enzyme chosen is an […] called CHOP2, which is activated when the Ub is cleaved by USP2. The free and now activated reporter can subsequently act on its reporter substrate. Thus, this coupled assay gives a fluorescent read-out at excitation/emission wavelengths of 485/531. The assay was developed by Progenra, Inc. and has been licensed for sale by LifeSensors, Inc. as Ub-CHOP2-Reporter-Kit (#PR1101).
NCGC Assay Protocol Summary: The assay buffer, prepared fresh at the day of the assay, contains 20mM Tris-HCl pH 8.0, 2mM CaCl2, 2mM beta-Mercaptoethanol, 0.05% CHAPS. 3ul of 20nM (10nM final) USP2 core, which is stored on ice, is dispensed into a medium-binding black solid Kalypsys 1,536 well plate using the Kalypsys dispenser. The assay plate is then pinned with 23nL compound with the Kalypsys pintool in columns 5-48. The controls are pinned as follows: column 1 two-fold dilutions of 2M NEM in duplicate; column 2 2M NEM (final concentration 38.2mM); column 3&4 DMSO. The assay plate is incubated at RT for 30min. Subsequently, 1.5uL of 100nM (25nM final) Ub-CHOP2 and 1.5uL of 100nM (25nM final) Reporter Substrate (both stored on ice and protected from light) were dispensed into the plate using the Kalypsys dispenser. Plates were read after 60min RT incubation on a ViewLux (Perkin Elmer) plate reader using the following wavelengths Ex 485nm /Em 531nm. Data were normalized to the to AC100 inhibition (NEM). Concentration-response curves were fitted to the normalized data and the concentration-response curves were then classified based on curve quality (r2), response magnitude and degree of measured activity. The time zero reading was used to flag fluorescence artifacts. Keywords: ubiquitination, deubiquitination, proteases, profluorescent, MLSMR, MLPCN, NIH Roadmap, qHTS, NCGC
Further: nearly all actives have a fitted effect of over 55% in size.
Potency means the concentration at half of the fitted maximal effect; tags describe the fitted curve by direction and shape.

Sequence of UniProt O75604 (O75604 whole entry, looked up): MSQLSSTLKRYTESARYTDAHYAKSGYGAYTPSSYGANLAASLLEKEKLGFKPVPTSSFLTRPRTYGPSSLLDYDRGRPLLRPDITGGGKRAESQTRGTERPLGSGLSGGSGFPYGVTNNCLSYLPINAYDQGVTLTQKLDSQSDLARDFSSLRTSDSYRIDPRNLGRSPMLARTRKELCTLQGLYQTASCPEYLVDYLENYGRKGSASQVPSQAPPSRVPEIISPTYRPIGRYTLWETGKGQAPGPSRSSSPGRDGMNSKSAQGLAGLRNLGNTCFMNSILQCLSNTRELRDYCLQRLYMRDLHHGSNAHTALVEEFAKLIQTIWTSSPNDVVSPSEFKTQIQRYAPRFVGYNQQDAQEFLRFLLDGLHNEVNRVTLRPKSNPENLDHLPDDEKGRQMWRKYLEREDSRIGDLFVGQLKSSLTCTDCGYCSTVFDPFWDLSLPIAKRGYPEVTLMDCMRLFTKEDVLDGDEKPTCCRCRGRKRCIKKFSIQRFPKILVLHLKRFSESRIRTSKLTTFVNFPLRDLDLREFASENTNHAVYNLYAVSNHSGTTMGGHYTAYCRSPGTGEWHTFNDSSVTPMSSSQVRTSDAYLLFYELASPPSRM

SMILES	Potency	activity change, negative = inhibition
O=C(OCC(=O)N1N=C(c2ccc(Cl)cc2)CC1c1ccco1)c1cccnc1 (stereo not given)	inconclusive [inhibitor, partial curve, poor fit]	–
CCOC(=O)c1c(C)n(-c2ccc(C)cc2)c2ccc(OCC(O)CN3CCN(C)CC3)cc12 (stereo not given)	inconclusive [inhibitor, single point]	–
O=c1[nH]c(=S)[nH]c2c1C(c1ccc(Br)cc1)c1c([nH]c(=S)[nH]c1=O)O2	active: 9.27 µM	–
COCCCNC(=O)C1CCN(c2nc(C)cc(C)n2)CC1	–	inactive: 1.61%
CC1=NN(c2ccc(C)cc2)C(=O)/C1=C/c1ccc(-c2cc([N+](=O)[O-])ccc2O)o1	inconclusive [inhibitor, single point]	–
O=C1CCCc2nc(N3CCN(c4ccccc4)CC3)ncc21	–	inactive: -1.03%
C[C@@H]1CN([C@H](C)CO)C(=O)Cc2cc(NS(=O)(=O)c3ccc(Cl)cc3)ccc2O[C@H]1CN(C)Cc1ccc(C(F)(F)F)cc1	inconclusive [inhibitor, partial curve, poor fit]	–
O=C(NN1C(=O)/C(=C/C=C/c2ccco2)SC1=S)c1ccncc1	active: 13.1 µM	–
CCOc1ccccc1C(=O)NC1CC2CCCC(C1)N2C1CC1 (stereo not given)	–	inactive: 5.99%
Cc1ccc([C@@H]2CC=C(C(=O)O)[C@H](c3ccc(C(C)(C)C)cc3)N2S(=O)(=O)c2ccc(C)cc2)cc1	inconclusive [inhibitor, single point]	–
CC(C)CC(=O)NC(=S)Nc1nc(-c2ccc(Cl)cc2)cs1	–	inactive: 2.55%
O=C(Nc1ccc(C2=NCCN2)cc1)c1ccc(C(=O)Nc2ccc(C3=NCCN3)cc2)c([N+](=O)[O-])c1	inconclusive [inhibitor, single point]	–
CCOc1ccc(NC(=O)c2ccc(NC(=O)COC(=O)c3ccc(NC(=O)CC#N)cc3)cc2)cc1	inconclusive [inhibitor, single point]	–
CSc1ccc(NC(=O)CSc2nc3[nH]c(=O)cc(O)c3s2)cc1	inconclusive [inhibitor, single point]	–
CC(=O)NS(=O)(=O)c1ccc(NC(=O)c2cc(-c3ccc(C)c(C)c3)nc3ccccc23)cc1	inconclusive [inhibitor, single point]	–
COc1ccc(/C=C2\SC(=O)N(CC(=O)Nc3cccc(C)c3)C2=O)cc1O	inconclusive [inhibitor, single point]	–
O=C(N/N=C/c1ccc(Sc2ccccn2)o1)c1cc2ccccc2cc1O	inconclusive [inhibitor, single point]	–
Cc1ccc(S(=O)(=O)N2[C@@H](c3ccc(C(C)(C)C)cc3)C(C(=O)O)=CC[C@H]2c2ccc(Cl)c(Cl)c2)cc1	inconclusive [inhibitor, single point]	–
CCOC(=O)C1CCN(CC(O)COc2ccc(C(C)(C)C)cc2)CC1 (stereo not given)	–	inactive: 0.593%
COc1ccc(OCC(=O)Nc2ccccc2OC)cc1	–	inactive: 7.41%

SMILES	Potency	activity change, negative = inhibition
O=C(Cc1cccs1)Nc1ccc(S(=O)(=O)N2CCCCC2)cc1	inconclusive [inhibitor, single point]	–
Cc1ccc(N(CC(=O)Nc2ccc(S(=O)(=O)N3CCOCC3)cc2)S(C)(=O)=O)cc1C	–	inactive: -1.17%
O=C1S/C(=C\C=C\c2ccco2)C(=O)N1c1ccc(O)cc1	inconclusive [inhibitor, partial curve, poor fit]	–
Cc1cc(-c2nnc3n2N=C(c2ccc(-c4ccccc4)cc2)CS3)n[nH]1	inconclusive [inhibitor, partial curve, poor fit]	–
COC(=O)c1c(NC(=O)c2cccnc2)sc(C)c1C	inconclusive [activator, partial curve, poor fit]	–
C#CCOCCOCCOCCNc1nc(N2CCN(C(=O)CCCCCCCCCCNC(=O)[C@@H](CCSC)n3cc(CCO)nn3)CC2)nc(N2CCN(C(=O)CCCCCCCCCCNC(=O)[C@H](CCCN=C(N)N)n3cc(C[C@@H](C)CC)nn3)CC2)n1	active: 13.1 µM	–
O=C(Nc1ccc(N2CCCC2)cc1)C(c1ccccc1)c1ccccc1	inconclusive [inhibitor, single point]	–
Cc1ccc(S(=O)(=O)N2[C@@H](c3ccc(C(C)(C)C)cc3)C(C(=O)O)=CC[C@H]2c2cccc(Cl)c2)cc1	inconclusive [inhibitor, single point]	–
CCCc1nc(SCC(N)=O)[nH]c(=O)c1CC	–	inactive: 5.12%
COc1cc(/C=C/c2cc[n+](C)cc2)ccc1OCC(=O)Nc1ccc(Cl)c(Cl)c1	inconclusive [inhibitor, single point]	–
Cc1cc(-c2csc(NCc3ccccc3)n2)c(C)n1C	active: 18.5 µM	–
CCN(CC)S(=O)(=O)c1ccc(-c2nnc(SCC(=O)Nc3ccc4c(c3)OCO4)o2)cc1	–	inactive: -22%
CCN(CC)CCNc1nc(-c2ccccc2)c2c(c1C#N)CC(C)(C)OC2	–	inactive: -2.42%
CCCCCCCCCCOC(=O)Cn1c(COc2ccc(Cl)cc2)[n+](C)c2ccccc21	active: 18.5 µM	–
Cc1ccc(C(=O)NNc2c3ccccc3nc3ccccc23)cc1	inconclusive [inhibitor, single point]	–
COc1ccc(C(=O)C[N+]2(C)CCOCC2)cc1	–	inactive: 2.16%
O=C(/C=C\c1ccco1)c1ccc(NC(=O)c2ccco2)cc1	inconclusive [inhibitor, partial curve, poor fit]	–
COc1ccc(CCn2c(O)cc3nn(-c4nc5ccccc5s4)c(=O)c-3c2C)cc1	inconclusive [inhibitor, single point]	–
COCc1cc(C)nc(SCC[N+](C)(C)CC(=O)Nc2cccc(C(F)(F)F)c2)c1C#N	–	inactive: -13.5%
C[C@@H]1CC[C@]2(C(=O)O)CC[C@]3(C)C(=CCC4[C@]56CC[C@@](O)(OC5)C(C)(C)C6CC[C@]43C)C2[C@H]1C (stereo not given in full)	inconclusive [inhibitor, single point]	–
